Experimental data reported in ChEMBL document CHEMBL1201862, “PubChem BioAssay data set” (2004).
The source made the active and inactive calls. Cut-off read from the data, not from the text of the source: actives have a measured IC50 and inactives only a lower limit.

Tests used:
Format in all cases: functional
Caspase-3 = biological target: T1, Caspase-3 (Homo sapiens, UniProt P42574);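 note: Dose-response selectivity test against caspase-3 for candidate inhibitors of sentrin-specific proteases (SENPs)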
T1 sequence (P42574 whole entry): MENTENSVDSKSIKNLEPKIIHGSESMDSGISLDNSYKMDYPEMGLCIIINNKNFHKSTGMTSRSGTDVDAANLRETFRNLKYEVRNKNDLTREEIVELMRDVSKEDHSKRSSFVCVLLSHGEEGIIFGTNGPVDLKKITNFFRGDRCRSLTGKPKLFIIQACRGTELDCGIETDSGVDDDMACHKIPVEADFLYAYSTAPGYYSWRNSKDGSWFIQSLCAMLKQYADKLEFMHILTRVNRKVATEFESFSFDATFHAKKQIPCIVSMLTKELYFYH

[1] = biological target: T2, Sentrin-specific protease 7 (Homo sapiens, UniProt Q9BQF6);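 note: Luminescence-based dose-response confirmation of ultra-high-throughput screening hits, measuring inhibition of SENP7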
T2 sequence (Q9BQF6 whole entry): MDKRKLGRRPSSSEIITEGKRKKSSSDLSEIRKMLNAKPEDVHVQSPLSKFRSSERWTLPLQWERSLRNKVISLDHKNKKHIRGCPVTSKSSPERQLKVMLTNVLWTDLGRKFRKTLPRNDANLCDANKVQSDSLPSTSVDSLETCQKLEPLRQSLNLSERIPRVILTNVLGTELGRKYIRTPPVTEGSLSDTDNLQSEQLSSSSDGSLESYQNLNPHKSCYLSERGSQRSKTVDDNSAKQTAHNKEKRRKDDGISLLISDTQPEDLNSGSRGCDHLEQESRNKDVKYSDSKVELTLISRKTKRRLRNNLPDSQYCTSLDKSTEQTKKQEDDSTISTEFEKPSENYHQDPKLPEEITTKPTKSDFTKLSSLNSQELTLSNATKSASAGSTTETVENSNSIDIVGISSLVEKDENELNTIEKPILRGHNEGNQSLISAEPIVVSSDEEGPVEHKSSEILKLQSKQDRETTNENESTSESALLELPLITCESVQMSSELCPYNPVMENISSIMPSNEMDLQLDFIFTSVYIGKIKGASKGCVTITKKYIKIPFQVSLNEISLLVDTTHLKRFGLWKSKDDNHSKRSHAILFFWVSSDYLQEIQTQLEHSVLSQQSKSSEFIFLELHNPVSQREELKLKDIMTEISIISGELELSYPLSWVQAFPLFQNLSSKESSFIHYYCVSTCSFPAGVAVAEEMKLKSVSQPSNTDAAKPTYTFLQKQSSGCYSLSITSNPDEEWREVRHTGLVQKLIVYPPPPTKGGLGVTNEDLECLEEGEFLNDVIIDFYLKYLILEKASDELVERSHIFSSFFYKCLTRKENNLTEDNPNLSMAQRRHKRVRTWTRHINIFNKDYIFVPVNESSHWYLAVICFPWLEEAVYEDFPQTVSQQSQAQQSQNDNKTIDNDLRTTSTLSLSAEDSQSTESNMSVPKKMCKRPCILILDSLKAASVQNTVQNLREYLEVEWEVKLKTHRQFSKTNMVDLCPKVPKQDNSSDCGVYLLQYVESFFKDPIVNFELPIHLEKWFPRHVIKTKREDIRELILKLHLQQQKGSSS

[2] = biological target: T3, Sentrin-specific protease 6 (Homo sapiens, UniProt Q9GZR1);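 note: Luminescence-based dose-response confirmatory assay of SENP6 inhibition, following up an ultra-high-throughput screen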
T3 sequence (Q9GZR1 whole entry): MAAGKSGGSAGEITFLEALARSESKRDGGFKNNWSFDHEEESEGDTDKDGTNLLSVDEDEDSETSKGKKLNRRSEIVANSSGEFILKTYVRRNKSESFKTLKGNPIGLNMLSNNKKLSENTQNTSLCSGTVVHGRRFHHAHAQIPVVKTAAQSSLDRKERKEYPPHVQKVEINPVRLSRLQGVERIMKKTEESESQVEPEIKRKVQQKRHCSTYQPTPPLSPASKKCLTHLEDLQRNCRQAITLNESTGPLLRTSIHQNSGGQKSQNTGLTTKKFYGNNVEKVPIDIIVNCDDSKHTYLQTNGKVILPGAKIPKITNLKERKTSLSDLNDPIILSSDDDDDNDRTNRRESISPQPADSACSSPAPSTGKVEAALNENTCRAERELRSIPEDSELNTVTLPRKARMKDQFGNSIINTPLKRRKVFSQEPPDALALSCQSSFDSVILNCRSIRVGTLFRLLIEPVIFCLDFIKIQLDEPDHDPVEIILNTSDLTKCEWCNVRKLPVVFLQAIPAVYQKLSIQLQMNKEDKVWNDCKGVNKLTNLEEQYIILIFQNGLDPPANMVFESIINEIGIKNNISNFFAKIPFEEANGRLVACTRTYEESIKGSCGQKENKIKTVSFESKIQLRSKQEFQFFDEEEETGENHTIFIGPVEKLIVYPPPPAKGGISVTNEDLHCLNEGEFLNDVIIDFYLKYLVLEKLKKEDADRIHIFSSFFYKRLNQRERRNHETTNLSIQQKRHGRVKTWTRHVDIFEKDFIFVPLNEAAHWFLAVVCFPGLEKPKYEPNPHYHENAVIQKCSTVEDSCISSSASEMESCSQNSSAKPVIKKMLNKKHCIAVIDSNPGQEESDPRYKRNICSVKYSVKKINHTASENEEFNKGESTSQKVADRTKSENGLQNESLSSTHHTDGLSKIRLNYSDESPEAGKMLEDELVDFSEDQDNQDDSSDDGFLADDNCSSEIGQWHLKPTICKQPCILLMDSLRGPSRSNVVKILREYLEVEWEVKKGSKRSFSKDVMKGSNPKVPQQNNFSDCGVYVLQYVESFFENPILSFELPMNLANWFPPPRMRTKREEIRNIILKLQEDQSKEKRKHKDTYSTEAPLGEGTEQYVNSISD

[3] = biological target: T4, Sentrin-specific protease 8 (Homo sapiens, UniProt Q96LD8);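 note: luminescence read-out of SENP8 inhibition, dose-response confirmation following an ultra-high-throughput screen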
T4 sequence (Q96LD8 whole entry): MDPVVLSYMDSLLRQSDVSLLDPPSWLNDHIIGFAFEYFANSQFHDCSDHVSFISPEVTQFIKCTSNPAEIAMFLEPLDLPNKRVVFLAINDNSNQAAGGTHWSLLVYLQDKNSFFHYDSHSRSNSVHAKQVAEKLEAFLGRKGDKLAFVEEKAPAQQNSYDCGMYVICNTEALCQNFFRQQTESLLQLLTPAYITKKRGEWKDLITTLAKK

IC50 (Caspase-3): active: 16.5 µM | IC50 [1]: active: 7.26 µM | IC50 [2]: active: 24.1 µM
SMILES: Cc1cc(=O)oc2cc(OCc3ccccc3)ccc12
IC50 [3]: active: 21 µM
